First the molecules themselves.
B1: TPR 5TU (parent)
chain: GGAUCUUCUCGAUCUAACAAAAAAGACAAAUCUGCCACAAAGCUUGAGAGCAUCUUCGGAUGCAGAGGCGGCAGCCUUCGGUGGCGCGAUAGCGCCAACGUUCUCAACUAUGACACGCAAAACGCGUGCUCCGUUGAAUGGAGUUUAUCAUG

Consider 83 variants from the RNAGym collection of RNA variant scans (doi:10.1073/pnas.2313332121).

Variants at the background level are over-represented here.

Variants of B1 are the subject of the series. As to the kind of experiment: polymerase ribozyme fitness, log enrichment relative to wild type (log ratio); higher = more active; in vitro selection for triplet polymerase activity. A digest of the protocol:
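Mutant libraries of each subunit of a heterodimeric triplet polymerase ribozyme were built by PCR and transcribed. Each library went through one round of in vitro selection in triplicate: annealing with biotinylated primer, partner subunit and triplets, frozen incubation at −7 °C, gel excision of extended constructs, streptavidin-bead capture and RT-PCR. Input and output libraries were Illumina-sequenced; only genotypes with ≥10 input reads and ≥1 read per output were kept. Fitness is log2(genotype enrichment/wild-type enrichment), using inverse-variance-weighted replicate averages.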
For the variant G88A C93G C103G, the “polymerase ribozyme fitness (log ratio)” value was no more than -4.2. The value for C87U C93A U148G U151G was no more than -4.2. For C87G C132G the value was no more than -4.2; for C85G C108G U134A G136C A142C, no more than -4.2; for C85U U111C C125A, no more than -4.2. For the variant C85G G86A A119C, the “polymerase ribozyme fitness (log ratio)” value was no more than -4.2. For A91C A113G the value was -4.15. The value for G88C A121U was no more than -4.2; that for A89U A150C was -3.66. Regarding G86U C93U, the “polymerase ribozyme fitness (log ratio)” value was -2.59. For the variant A89U G94U, the “polymerase ribozyme fitness (log ratio)” value is -1.2. The value for C85G A115U A121G A142G U144G was no more than -4.2. As to U90C U102C A107U, the “polymerase ribozyme fitness (log ratio)” value was no more than -4.2.

As for C87U U144G, the “polymerase ribozyme fitness (log ratio)” value is -0.986.

Turning to G86U A115G, the “polymerase ribozyme fitness (log ratio)” value is -2.39. The value for C85G G94A G117U G124U U135G was -3.69; that for A89G C96U U135G was no more than -4.2.

On to G88C G92U, for which the “polymerase ribozyme fitness (log ratio)” value is no more than -4.2.

Turning to C87A C96A, the “polymerase ribozyme fitness (log ratio)” value is no more than -4.2. For C87A G117C U134G the value was no more than -4.2; for C85G C118U A121G U135A U144A U148G, no more than -4.2; for U90A C99G, no more than -4.2. Turning to U90G U104A U134A, the “polymerase ribozyme fitness (log ratio)” value was no more than -4.2.

As for G86U G92C A98G A150U, the “polymerase ribozyme fitness (log ratio)” value was -2.26.

For the variant C87G A97U G117C, the “polymerase ribozyme fitness (log ratio)” value is no more than -4.2. The value for C85G G92U A138U U145A was no more than -4.2; that for G86U C99G was -3.67; that for G86U C93U A120C U127A was no more than -4.2. The value for C85G C125A U144A was -3.57. Take C85G C114G C129U U135G: the “polymerase ribozyme fitness (log ratio)” value was no more than -4.2. For G88A C93G U139G A147C the value was no more than -4.2. The value for C85G C129G was -4.11; that for A89U C99U G128U G141U was no more than -4.2. For G88C U135A, the “polymerase ribozyme fitness (log ratio)” value was no more than -4.2. Take C87A G117C G136U G141U: the “polymerase ribozyme fitness (log ratio)” value was no more than -4.2. The value for C85U G126A G128U U146A was no more than -4.2. For C87G C103A A107G A137C U151C the value was no more than -4.2; for C85U C99U C108U C116U A147U C149U, no more than -4.2; for G88U C108G C118U A120U, no more than -4.2. As for C85G A110C C116U G140A, the “polymerase ribozyme fitness (log ratio)” value was no more than -4.2. A89U C95G A107G U135C: the “polymerase ribozyme fitness (log ratio)” value is no more than -4.2. For C85U C96A U111A A142G the value was no more than -4.2; for C87A U102G, no more than -4.2; for C87A U139C, no more than -4.2. For C87A U139G the value was no more than -4.2; for C87G G141U, -3.61; for C85U G88A U151G, no more than -4.2. In the case of C85U C95G, the “polymerase ribozyme fitness (log ratio)” value is -2.03. The value for G86U C96A U135C was no more than -4.2; that for C85G U104G G141U was no more than -4.2; that for G88U A142C was no more than -4.2.

With G86U U135A A142U, the “polymerase ribozyme fitness (log ratio)” value was no more than -4.2. For C85U C87G G140C the value was no more than -4.2; for G86A C87A, no more than -4.2; for C87G C123U, no more than -4.2.

Turning to G88U A97C C116U, the “polymerase ribozyme fitness (log ratio)” value is no more than -4.2.

Turning to A89C A150C, the “polymerase ribozyme fitness (log ratio)” value was -3.81. The value for G88U G117U U139A was no more than -4.2; that for G86U U102C A110U U111G G126A A142G A147G was no more than -4.2; that for C87U C129G was -2.63. Regarding A89G U134C, the “polymerase ribozyme fitness (log ratio)” value is -0.372.

In the case of G86U A147G, the “polymerase ribozyme fitness (log ratio)” value was -3.45. The value for C87A A89C G126C U144G U146C A150C was no more than -4.2; that for C87G C103U was no more than -4.2; that for G86A A97G U135C was no more than -4.2.

For the variant C85U U144A, the “polymerase ribozyme fitness (log ratio)” value is -0.618. The value for A89G C95G A120U G133U was no more than -4.2; that for C85G U135C G136A U146G was no more than -4.2; that for C87G C108U A147G was no more than -4.2. Turning to A89U C96U C118U A122G U139G, the “polymerase ribozyme fitness (log ratio)” value was -0.0743. Turning to G86A C103U, the “polymerase ribozyme fitness (log ratio)” value was -1.01.

In the case of G86U C114U G124C, the “polymerase ribozyme fitness (log ratio)” value is no more than -4.2.

For A89C G117U, the “polymerase ribozyme fitness (log ratio)” value is -0.705.

On to C87G A138G, for which the “polymerase ribozyme fitness (log ratio)” value was no more than -4.2. For C87G A138U the value was no more than -4.2; for A89G C93A, -3.94.

In the case of C87G G152A, the “polymerase ribozyme fitness (log ratio)” value was no more than -4.2. The value for G86U G100A C131U was no more than -4.2; that for G88C U101A was no more than -4.2.

As for C85G U130G, the “polymerase ribozyme fitness (log ratio)” value was no more than -4.2. The value for G86A C103G A147G was no more than -4.2; that for C87A A115G was no more than -4.2. For the variant C85U U102A U104G A107U C114A A138G, the “polymerase ribozyme fitness (log ratio)” value is no more than -4.2.
